Data on 91 molecules can be found in ChEMBL document CHEMBL1157539, “Thousands of chemical starting points for antimalarial lead identification” (Nature, 2010).

Values joined by “and” are separate entries in the source; they are usually repeats but may differ in a detail not shown here. Equal entries are not always repeated. In all, about 13,000 compounds were measured (“IFI”: median about 4, highest 2% from about 17 on). Some of the results follow.

The nature of this experiment: GSK_TCMDC: Inhibition Frequency Index (IFI). The number of non-kinase HTS assays where a compound showed > 50 % inhibition, expressed as a percentage of the number of such assays in which the compound was tested (-0 is zero). Format: functional.
Take `COc1ccc(-n2ccnc2SCC(=O)Nc2cc(Cl)ccc2OC)c(OC)c1`: the IFI was found to be 2.74%. On to `O=C(/C=C/c1ccc(Cl)cc1)Nc1ccc2nc(CN3CCCC3)ccc2c1`, for which the IFI turned out to be 8.33%.

With `Cc1cccc(CN2CCC(Oc3ccc(NC(=O)c4cccs4)cc3Cl)CC2)n1`, the IFI worked out at 3.33%. The figure for `CN1CCCC(CN2CCN(Cc3ccc(-c4ccc(-c5nc6ccccc6[nH]5)s4)cc3)CC2)C1` (stereo unspecified) is 7.04%; for `CCOc1ccc2nc3cc(N)ccc3c(N)c2c1` it is 2.08%; for `N#Cc1ccc(-c2ccc(OCC(O)CN3CCCN(C(=O)C(c4ccc5c(c4)OCO5)N4CCN(C/C=C/c5ccccc5)CC4)CC3)cc2)cc1` (stereo unspecified) it is 6.04%. The figure for `COc1ccc2nccc([C@@H](O)CN3CCC(NCc4cc5cccnc5[nH]4)CC3)c2n1` is 3.88%. As for `Oc1ccc(Cl)cc1CN1CCC2(CCCN(CC3CCC3)C2)C1` (stereo unspecified), the figure is 4.65%.

Molecule `CN1CCC(C(=O)N(Cc2ccc(-c3ccc(CNCCc4ccc(S(C)(=O)=O)cc4)cn3)cc2)Cc2cccc(F)c2)CC1` had an IFI of 2.78%. As for `COC(=O)/C=C/c1ccc(CCC(C)NCC(O)c2cccc(Cl)c2)cc1` (stereo unspecified), the figure is 2.9%; as for `O=c1cc(NCCCNCc2sc(Br)c(Br)c2Br)[nH]c2ccccc12`, 5.11%.

In the case of `CN(Cc1cnc2nc(N)nc(N)c2n1)c1ccc(C(=O)N[C@@H](CCC(=O)O)C(=O)O)cc1`, the IFI is 1.46% and -0% and 0.74%.

In the case of `COc1ccc(Cc2c(Cl)nc3nc(N)nc(N)c3c2C)c(OC)c1OC`, the IFI turned out to be 0.8%.

`COc1cc2nc(N3CCC(CNC(=O)c4ccc(-c5ccc(Cl)cc5)cc4)CC3)nc(N)c2cc1OC` came in with an IFI of 9.26%.

In turn, `Cc1[nH]c(C)c(-c2ccc(Oc3ccc(Cl)cc3)cc2)c(=O)c1Br` came in with an IFI of 0.78%. As for `CN(C)CCNC(=O)[C@H](Cc1ccccc1)NC(=O)c1ccc(O)c(-c2ccc(Cl)c(Cl)c2)c1`, the figure is 3.62%.

For `OCC1CCN(Cc2ccc(-c3cccc(-c4nc5cc(F)ccc5[nH]4)c3)cc2)CC1`, the IFI worked out at 0%. As for `Cc1ccc(O)cc1Nc1ccnc2cc(-c3ccccn3)ccc12`, the figure is 3.57%; as for `O=C(Nc1ccc(OC2CCN(Cc3ccco3)CC2)c(Cl)c1)c1ccc2ncccc2c1`, 6.45%. The figure for `Cc1[nH]n(-c2cccc(C(F)(F)F)c2)c(=O)c1-c1ccc(Cl)cc1` is 4.41%; for `Cc1[nH]c(C)c(-c2ccc(OCc3ccc(F)cc3)nc2)c(=O)c1Br` it is 3.57%; for `Cc1noc(C)c1CN1CCCN(c2ccc3c(c2)CCN(Cc2ccc(-c4ncc[nH]4)cc2)CC3)CC1` it is 4.2%.

Consider `CCNc1cc(C(=O)N[C@@H](Cc2ccccc2)[C@H](O)CNC2CCC(C)(C)CC2)cc(N2CCCCS2(=O)=O)c1`, for which the IFI was 3.65%. As for `CN(C)CCCNCCS(=O)(=O)c1cccc(Nc2ccc(-c3cccc(N(C)C)c3)cn2)c1`, the figure is 5.45%. The figure for `CN(Cc1ccccc1)C1CCCN(c2cc(NC(=O)c3ccc(F)cc3)ccn2)C1` (stereo unspecified) is 5.56%; for `Cc1cc(N[C@@H](Cc2ccccc2)C(=O)Nc2ccccc2)nc(NCCc2cccnc2)n1` it is 2.44%. As for `COc1cccc(NC(=O)Cn2c(C)c(C#N)c3ccccc32)c1`, the figure is -0%; as for `CCNc1cc(C)nc(Nc2ccc(NC(=O)c3ccccc3Br)cc2)n1`, 11.1%. The molecule `FC(F)(F)c1cccc(C=NNc2nc3ccccc3[nH]2)c1` showed an IFI of 2.9%.

Molecule `COc1cccc(CN2CCCN(Cc3cccc(NC(=O)c4cc5ccccc5s4)c3)CC2)c1` showed an IFI of 6.92%.

On to `c1ccc(-n2ncc(CNCc3ccc(-c4cccc(-c5nc6ccccc6[nH]5)c4)cc3)n2)cc1`, for which the IFI was found to be 7.62%. The figure for `N=C(N)c1ccc(NCc2cccc(C(=O)O)c2)cc1` is 0%; for `CC(=O)N(C)C1CCN(Cc2cccc(-c3ccc(-c4nc5cc(F)ccc5[nH]4)cc3)c2)C1` (stereo unspecified) it is 1.43%; for `Cc1cc(N2CCCN(CC3CCCCC3)CC2)nc(Nc2ccc(Br)cc2)n1` it is 5.56%. As for `CNC(=O)c1ccccc1Nc1nc(Nc2ccc(C(=O)O)cc2)ncc1Cl`, the figure is -0%. As for `Cc1sc(NC(=O)c2ccc([N+](=O)[O-])cc2Cl)c(C(N)=O)c1C`, the figure is 0.75%. `CC(CN1CCN(C)CC1)C(=O)Nc1cccc(-c2ccc(-c3nc4ccccc4[nH]3)cc2)c1` (stereo unspecified) displayed an IFI of 5.5%.

Molecule `CCCN(CCCCCCN(CCC)CCc1ccc(O)c(O)c1)CCc1ccc(O)cc1` had an IFI of 5.63%. As for `CCN(CCCN1CCCCC1)c1cc(C)nc(Nc2cc(F)cc(F)c2)n1`, the figure is 1.28%; as for `CC(=O)Nc1ncc(C(=O)Nc2cccc(-c3ccc(-c4nc5cc(C(F)(F)F)ccc5[nH]4)s3)c2)s1`, 4.63%. As for `COc1ccc2nccc([C@@H](O)CN3CCC(NC(=O)C(c4ccccc4C)N4CCC(Cc5ccccc5)CC4)CC3)c2c1` (stereo partly specified), the figure is 1.48%. As for `c1ccc2c(Nc3ccc(Oc4ccc(Nc5c6ccccc6nc6ccccc56)cc4)cc3)c3ccccc3nc2c1`, the figure is 3.68%. With `O=C(Cc1cccc(Cl)c1)Nc1cccc(-c2c[nH]c3nc(Nc4ccccc4)ncc23)c1`, the IFI stood at 0.76%. As for `Cc1ccc(F)c(C(=O)Nc2cccc(-c3nn4ccccc4c3-c3ccnc(Nc4cccc(F)c4)n3)c2)c1F`, the figure is 2.13%. The figure for `Fc1ccc2c(NN=Cc3ccc(Cl)cc3)ccnc2c1` is 0.74%; for `COc1ccc(NC(=O)NC2CCN(c3ccnc4cc(Cl)ccc34)C2)cc1` (stereo unspecified) it is -0%. As for `Fc1ccc(Nc2ccnc3cc(I)ccc23)c(Cl)c1`, the figure is 5.04%; as for `CC1(C)NC(N)=NC(=N)N1OCCOc1ccc2ccccc2c1`, 4.29%; as for `COc1ccc2ncc(Cl)c([C@@H](O)CN3CCC(NCc4cc5c(cn4)OCCO5)CC3)c2c1`, 1.77%.

In the case of `COc1c(C2CCN(CCN3CCC(NC(=O)c4ccc(-c5ccc(C(F)(F)F)cc5)cc4)CC3)CC2)ccc2c1CCCC2`, the IFI stood at 1.85%. The figure for `CN1CCN(Cc2ccc(-c3ccc4c(Nc5ccc(Cl)cc5F)ccnc4c3)o2)CC1` is 8.57%; for `CCCOc1ccc(-c2nonc2NC(=O)c2cccc(OC)c2)cc1OCCC` it is -0%. The molecule `C[C@H](Cc1ccc(OCCCCCCOc2ccc(C[C@@H](C)NC[C@H](O)c3cccc(Cl)c3)cc2)cc1)NC[C@H](O)c1cccc(Cl)c1` registered an IFI of 16.9%. `Nc1c(Cl)cc(C(O)CNCCCCCOCCc2ccc3ccccc3n2)cc1Cl` (stereo unspecified) registered an IFI of 4.62%. The figure for `Cc1ccc2cc(C3NC(=O)c4ccccc4N3)c(Cl)nc2c1` (stereo unspecified) is 0%; for `CC1(C)N=C(N)N=C(N)C1c1ccc(Cl)c(Cl)c1` (stereo unspecified) it is 1.43%; for `C=CCC(C(=O)Nc1ccnc2ccc(OC)cc12)C1CCN(CCCCCCC)CC1` (stereo unspecified) it is 1.52%. As for `Cn1cccc1CCNCc1ccc(-c2cccc(-c3nc4cc(F)ccc4[nH]3)c2)cc1`, the figure is 0.97%. On to `Cc1cccc2nc(-c3ccc(-c4ccc(CN5CCCC(N)C5)cc4)s3)[nH]c12` (stereo unspecified), for which the IFI came out at 5.56%.

Molecule `O=C1NC(=O)C(c2cccc(NC(=O)c3ccncc3)c2)=C1c1ccccc1` showed an IFI of 2.99%. In turn, `Cc1cc(O)nc(NC(=N)NOCCCc2ccccc2)n1` showed an IFI of 0%. As for `Cc1ccc(NC(=O)c2cccc(CN3CCCN(CC4CCCCC4)CC3)c2)cc1F`, the figure is 5.67%.

As for `CN1CCN(c2cccc(-c3nnc(-c4cccc(OCC(=O)NCc5ccc(C(F)(F)F)cc5)c4)o3)c2)CC1`, the IFI worked out at 2.17%.

Take `Cc1cc(Nc2ccc3ccccc3c2)n2ncnc2n1`: the IFI was determined as 2.84%.

On to `CCOc1ccc2c(=NN=Cc3cc(OC)c(OC)cc3OC)cc(C)[nH]c2c1`, for which the IFI was determined as 2.19%. The figure for `COc1ccc(-c2cccc(CNC3CCN(C)CC3)c2)cc1S(=O)(=O)NCc1ccccc1` is 2.73%. As for `CCN(CCC1(c2ccc(Cl)c(Cl)c2)CN(C(=O)c2cc(OC)c(OC)c(OC)c2)CCO1)C1CC2c3ccccc3CC21` (stereo unspecified), the figure is 4.08%; as for `OC(CNC1CCCCC1)Cn1c2ccc(Br)cc2c2cc(Br)ccc21` (stereo unspecified), 6.29%. As for `O=C(Cc1c[nH]cn1)Nc1ccc(-c2ccc(-c3nc4cc(F)ccc4[nH]3)cc2)cc1`, the figure is 12.7%; as for `O=C1OC2(CN1CC1CCN(Cc3ccc(-n4ccnc4)cc3)C1)c1ccccc1-c1ccccc12` (stereo unspecified), 7.09%; as for `CC(c1cccc(S(=O)(=O)NCc2ccc(Cl)cc2Cl)c1)N1CCC(N2CCCCC2)CC1` (stereo unspecified), 10.5%.

The molecule `O=C(CCC1CCCCC1=O)c1ccccc1` (stereo unspecified) gave an IFI of 0.72%. As for `Cc1ccc(Nc2nc(C)cc(Nc3cccc(NS(C)(=O)=O)c3)n2)cc1`, the figure is 6.15%; as for `Cc1[nH]c(C)c(-c2ccc(OCc3ccc(OC(F)(F)F)cc3)nc2)c(=O)c1Cl`, 3.74%; as for `N=C(N)c1ccc(OCc2cccc(COc3ccc(C(=N)N)cc3I)c2)c(I)c1`, 12.1%.

Turning to `CC(=O)Nc1ccc(S(=O)(=O)N2CCN(c3nc(NC4CCCC4)c4ccccc4n3)CC2)cc1`, the IFI was 2.04%. The figure for `O=S(=O)(NCCN1CCCC1)c1ccc(-c2cccc(CNC3Cc4ccccc4C3)c2)cc1` is 8.93%; for `CC(=O)Nc1ncc(C(=O)Nc2cccc(-c3cccc(-c4nc5cc(F)ccc5[nH]4)c3)c2)s1` it is 3.64%. As for `Cc1cc(N[C@@H](Cc2ccccc2)C(=O)NC2CCCC2)nc(NCCCOC(C)C)n1`, the figure is 6.82%; as for `CCCCn1c(=N)c(C(=O)NCc2cccnc2)cc2c(=O)n3cccc(C)c3nc21`, 3.57%. As for `O=C(Nc1ccccc1)Nc1ccc(-n2ccc(C(F)(F)F)n2)cc1`, the figure is 3.31%. Molecule `Clc1cc(Nc2ncnc3cc(C#C[C@H]4CCCN4)sc23)cc2nc(Cc3ccccc3)[nH]c12` returned an IFI of 10.1%.

With `COc1cccc2cc(C(=O)N[C@@H](CC(C)C)C(=O)N[C@H](/C=N/NC(=O)N3CCN(C)CC3)CCc3ccccc3)oc12`, the IFI was found to be 4.59%. Regarding `O=C1c2ccccc2CN1CCCN1CCC(Oc2ccc(F)cc2)CC1`, the IFI was 3.01%.

In the case of `COc1ccc(N2CCN(CCCCNC(=O)c3ccc(NC(=O)c4cc(Cl)cc(Cl)c4)cc3)CC2)c(OC)c1`, the IFI worked out at 5.31%.

`CCCCCCCN1CCC(NC(=O)Nc2ccnc3ccc(OC)cc23)C(CO)C1` (stereo unspecified) showed an IFI of 6.3%.

As for `Cc1cccc2nc(-c3ccc(-c4cccc(NC(=O)Nc5ccc6c(c5)OCO6)c4)cc3)[nH]c12`, the IFI came to 6.06%. As for `O=C(Nc1ccc2c(c1)CCN2C1CCN(Cc2cccc(F)c2F)C1)c1ccco1` (stereo unspecified), the figure is -0%. As for `O=C(Nc1ccc(Cl)c(Cl)c1)N1CCc2ccc(OCCCN3CCCCC3)cc2CC1`, the figure is 9.09%; as for `COc1ccc(CNC2CCCC2)cc1-c1ccc(S(=O)(=O)NCCN2CCCC2)s1`, 5.61%. `O=C(Nc1ccc(-c2ccccc2)cc1)Nc1ccc2c(c1)CCNCC2` yielded an IFI of 9.84%.
